The IC50 comes from the fitted curve, where viability falls to half of the control; where the fit passes the top or lowest dose, that dose stands as a limit. AUC is the area under the same curve over the 256-fold range up to the top dose, as a fraction: 1 means no effect, lower means more sensitive. For part of these data: The top dose, if marked as inferred, comes from the curve model; the source does not state it.
How the values were obtained:
Experiment in all cases: Viability of human cancer cell lines after 72 h of drug (GDSC screen)
Bexarotene = compound: C=C(c1ccc(C(=O)O)cc1)c1cc2c(cc1C)C(C)(C)CCC2(C)C [Bexarotene]; details: top dose 8 µM
Description: (§1)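 Human cancer cell lines in 384-well plates, medium with 10% serum, drug for 72 h over a 256-fold dose range (nine 2-fold or five 4-fold steps up to the top dose). Adherent lines were fixed and stained with the nucleic acid dye Syto60, suspension lines read with resazurin; signal relative to control wells, capped at 0 and 100%. One two-parameter sigmoid per drug and line, fitted in a mixed model over all curves with the slope shared within a line.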

NPK76-II-72-1 = compound: COc1cc(C(=O)NC2CCN(C)CC2)ccc1Nc1ncc2c(n1)N(C1CCCC1)C(C)CC(=O)N2C [NPK76-II-72-1]; details: top dose 10.24 µM; top dose inferred
Description: as §1

Etoposide = compound: COc1cc([C@@H]2c3cc4c(cc3[C@@H](O[C@@H]3O[C@@H]5CO[C@@H](C)O[C@H]5[C@H](O)[C@H]3O)[C@H]3COC(=O)[C@H]23)OCO4)cc(OC)c1O [Etoposide]; details: top dose 16 µM
Description: as §1

YK 4-279 = compound: COc1ccc(C(=O)CC2(O)C(=O)Nc3c(Cl)ccc(Cl)c32)cc1 [YK 4-279]; details: top dose 10 µM
Description: as §1

BMS-345541 = compound: Cc1ccc2nc(NCCN)c3ncc(C)n3c2c1 [BMS-345541]; details: top dose 16 µM
Description: as §1

AZD7762 = compound: NC(=O)Nc1cc(-c2cccc(F)c2)sc1C(=O)N[C@H]1CCCNC1 [AZD7762]; details: top dose 2 µM
Description: as §1

GSK-650394 = compound: O=C(O)c1ccc(-c2c[nH]c3ncc(-c4ccccc4)cc23)cc1C1CCCC1 [GSK-650394]; details: top dose 16 µM; top dose inferred
Description: as §1

XAV 939 = compound: Oc1nc(-c2ccc(C(F)(F)F)cc2)nc2c1CSCC2 [XAV 939]; details: top dose 5 µM; top dose inferred
Description: as §1

| Cell Line | AUC (Bexarotene) | IC50 (Bexarotene) [µM] | AUC (NPK76-II-72-1) | IC50 (NPK76-II-72-1) [µM] | AUC (Etoposide) | IC50 (Etoposide) [µM] | AUC (YK 4-279) | IC50 (YK 4-279) [µM] | AUC (BMS-345541) | IC50 (BMS-345541) [µM] | AUC (AZD7762) | IC50 (AZD7762) [µM] | AUC (GSK-650394) | IC50 (GSK-650394) [µM] | AUC (XAV 939) | IC50 (XAV 939) [µM] |
| --- | --- | --- | --- | --- | --- | --- | --- | --- | --- | --- | --- | --- | --- | --- | --- | --- |
| NB5 (neuroblastoma, adherent) | 0.987 | > 8 | 0.796 | 4.87 | 0.842 | 11.5 | 0.547 | 0.838 | 0.885 | > 16 | 0.801 | 0.99 | 0.91 | > 16 | 0.982 | > 5 |
| NB10 (neuroblastoma, adherent) | 0.979 | > 8 | 0.805 | 5 | 0.826 | 9.35 | 0.577 | 1.01 | 0.904 | > 16 | 0.686 | 0.408 | 0.925 | > 16 | 0.96 | > 5 |
| NB12 (neuroblastoma, adherent) | 0.931 | > 8 | 0.945 | > 10.2 | 0.44 | 0.65 | 0.79 | 6.24 | 0.827 | 14.8 | 0.926 | > 2 | 0.896 | > 16 | 0.851 | > 5 |
| NB13 (neuroblastoma, adherent) | 0.985 | > 8 | 0.67 | 1.79 | 0.586 | 1.67 | 0.661 | 1.65 | 0.927 | > 16 | 0.717 | 0.473 | 0.837 | 8.99 | 0.987 | > 5 |
| NB(TU)1-10 (neuroblastoma, adherent) | 0.993 | > 8 | 0.788 | 3.86 | 0.794 | 6.26 | 0.992 | > 10 | 0.972 | > 16 | 0.884 | 1.66 | 0.927 | > 16 | 0.993 | > 5 |
| NCI-H69 (small cell lung carcinoma, suspension) | 0.983 | > 8 | 0.911 | > 10.2 | 0.741 | 5.36 | 0.695 | 2.37 | 0.878 | > 16 | 0.938 | > 2 | 0.838 | 12.6 | 0.959 | > 5 |
| NCI-H82 (small cell lung carcinoma, suspension) | 0.971 | > 8 | 0.671 | 1.86 | 0.942 | > 16 | 0.962 | > 10 | 0.878 | 14.7 | 0.61 | 0.247 | 0.901 | > 16 | 0.975 | > 5 |
| NCI-H209 (small cell lung carcinoma, suspension) | 0.921 | > 8 | 0.781 | 4.58 | 0.496 | 0.972 | 0.88 | > 10 | 0.909 | > 16 | 0.683 | 0.423 | 0.925 | > 16 | 0.927 | > 5 |
| NCI-H211 (small cell lung carcinoma, adherent) | 0.982 | > 8 | 0.354 | 0.255 | 0.423 | 0.619 | 0.828 | 5.91 | 0.868 | 14 | 0.808 | 0.999 | 0.849 | 11.5 | 0.947 | > 5 |
| NCI-H322M (lung adenocarcinoma, suspension) | 0.98 | > 8 | 0.983 | > 10.2 | 0.987 | > 16 | 0.947 | > 10 | 0.933 | > 16 | 0.903 | > 2 | 0.987 | > 16 | 0.973 | > 5 |
| NCI-H345 (small cell lung carcinoma, suspension) | 0.983 | > 8 | 0.989 | > 10.2 | 0.979 | > 16 | 0.964 | > 10 | 0.99 | > 16 | 0.967 | > 2 | 0.99 | > 16 | 0.989 | > 5 |
| NCI-H524 (small cell lung carcinoma, suspension) | 0.986 | > 8 | 0.756 | 3.17 | 0.965 | > 16 | 0.591 | 1.08 | 0.888 | 14.6 | 0.81 | 0.916 | 0.941 | > 16 | 0.989 | > 5 |
| NCI-H526 (small cell lung carcinoma, suspension) | 0.99 | > 8 | 0.451 | 0.474 | 0.393 | 0.517 | 0.976 | > 10 | 0.76 | 5.43 | 0.864 | 1.62 | 0.765 | 5.63 | 0.974 | > 5 |
| NCI-H596 (lung adenocarcinoma, adherent) | 0.957 | > 8 | 0.935 | > 10.2 | 0.812 | 11.8 | 0.812 | 7.45 | 0.893 | > 16 | 0.903 | > 2 | 0.964 | > 16 | 0.972 | > 5 |
| NCI-H650 (lung adenocarcinoma, adherent) | 0.986 | > 8 | 0.918 | > 10.2 | 0.774 | 6.95 | 0.682 | 2.14 | 0.833 | 11.8 | 0.848 | 1.72 | 0.762 | 6.25 | 0.985 | > 5 |
